The antibiotic and cytotoxicity screens of Wong et al. (2023)
This is one part of the list.

What was measured:
HSkMC = human skeletal muscle cells; experiment: cytotoxicity call (relative viability < 0.9); details: 10 µM
HepG2 = experiment: cytotoxicity call (relative viability < 0.9); details: 10 µM
S. aureus RN4220 = experiment: growth inhibition call (relative growth <= 0.2); details: 50 µM

CCCNC(=O)C[C@H]1CC[C@H]2[C@@H](COc3ccc(NS(=O)(=O)c4ccccc4C)cc3C(=O)N2C)O1
cytotoxicity call (HSkMC): inactive | cytotoxicity call (HepG2): inactive | growth inhibition call (S. aureus RN4220): inactive

COc1ccc(NC(=O)N(C)C[C@@H]2OCCCC[C@@H](C)Oc3ccc(NC(=O)c4ccncc4)cc3C(=O)N([C@H](C)CO)C[C@@H]2C)cc1
cytotoxicity call (HSkMC): inactive | cytotoxicity call (HepG2): inactive | growth inhibition call (S. aureus RN4220): inactive

C[C@@H]1CCCCO[C@@H](CN(C)S(=O)(=O)c2ccc(Cl)cc2)[C@H](C)CN([C@H](C)CO)C(=O)c2cc(NC(=O)Nc3ccc(F)cc3)ccc2O1
cytotoxicity call (HSkMC): inactive | cytotoxicity call (HepG2): active | growth inhibition call (S. aureus RN4220): inactive

CN1CCN(C(=O)C[C@@H]2CC[C@@H]3[C@H](COC[C@H](O)CN3Cc3ccc(Oc4ccccc4)cc3)O2)CC1
cytotoxicity call (HSkMC): inactive | cytotoxicity call (HepG2): inactive | growth inhibition call (S. aureus RN4220): inactive

C[C@H](CO)N1C[C@H](C)[C@H](CN(C)Cc2ccc(C(F)(F)F)cc2)Oc2c(NC(=O)c3nc4ccccc4s3)cccc2C1=O
cytotoxicity call (HSkMC): inactive | cytotoxicity call (HepG2): inactive | growth inhibition call (S. aureus RN4220): inactive

C[C@H]1CN([C@@H](C)CO)C(=O)Cc2cc(NC(=O)Nc3cccc4ccccc34)ccc2O[C@H]1CN(C)Cc1ccccc1
cytotoxicity call (HSkMC): inactive | cytotoxicity call (HepG2): inactive | growth inhibition call (S. aureus RN4220): inactive

O=C(C[C@H]1CC[C@@H]2[C@H](COC[C@H](O)CN2C(=O)Nc2ccc(F)cc2)O1)NCCCN1CCOCC1
cytotoxicity call (HSkMC): inactive | cytotoxicity call (HepG2): inactive | growth inhibition call (S. aureus RN4220): inactive

C[C@@H]1CN([C@@H](C)CO)C(=O)Cc2cc(NC(=O)CCN3CCOCC3)ccc2O[C@@H]1CN(C)C(=O)Nc1ccc(F)cc1
cytotoxicity call (HSkMC): inactive | cytotoxicity call (HepG2): inactive | growth inhibition call (S. aureus RN4220): inactive

C[C@H]1CCCCO[C@H](CN(C)C(=O)C2CCCCC2)[C@@H](C)CN([C@@H](C)CO)C(=O)c2cc(NC(=O)Nc3ccc4c(c3)OCO4)ccc2O1
cytotoxicity call (HSkMC): inactive | cytotoxicity call (HepG2): inactive | growth inhibition call (S. aureus RN4220): inactive
